# Reference: PMC10444538
# Protein sequences, listed by entry. Tags and fused reporters are not part of them.
# UniProt Q8CIP4: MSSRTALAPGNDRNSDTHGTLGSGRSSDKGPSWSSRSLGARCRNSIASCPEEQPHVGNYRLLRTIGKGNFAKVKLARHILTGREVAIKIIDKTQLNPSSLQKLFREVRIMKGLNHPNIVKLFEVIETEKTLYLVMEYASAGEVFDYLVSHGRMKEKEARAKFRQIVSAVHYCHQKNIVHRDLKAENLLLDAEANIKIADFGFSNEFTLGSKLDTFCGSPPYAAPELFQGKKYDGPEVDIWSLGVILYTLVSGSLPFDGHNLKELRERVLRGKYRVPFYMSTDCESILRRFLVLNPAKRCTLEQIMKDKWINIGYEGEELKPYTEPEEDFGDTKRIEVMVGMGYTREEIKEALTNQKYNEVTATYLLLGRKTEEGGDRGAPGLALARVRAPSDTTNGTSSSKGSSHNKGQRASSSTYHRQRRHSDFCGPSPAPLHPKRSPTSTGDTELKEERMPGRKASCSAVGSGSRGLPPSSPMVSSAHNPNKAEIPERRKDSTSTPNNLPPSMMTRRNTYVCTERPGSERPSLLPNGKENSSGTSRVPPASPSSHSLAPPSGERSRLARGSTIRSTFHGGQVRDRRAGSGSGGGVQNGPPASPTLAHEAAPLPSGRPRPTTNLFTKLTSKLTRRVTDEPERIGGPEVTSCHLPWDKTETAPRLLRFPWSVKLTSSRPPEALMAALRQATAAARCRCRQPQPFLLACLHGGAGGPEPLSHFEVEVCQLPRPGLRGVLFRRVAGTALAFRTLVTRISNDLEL
# UniProt Q96L34: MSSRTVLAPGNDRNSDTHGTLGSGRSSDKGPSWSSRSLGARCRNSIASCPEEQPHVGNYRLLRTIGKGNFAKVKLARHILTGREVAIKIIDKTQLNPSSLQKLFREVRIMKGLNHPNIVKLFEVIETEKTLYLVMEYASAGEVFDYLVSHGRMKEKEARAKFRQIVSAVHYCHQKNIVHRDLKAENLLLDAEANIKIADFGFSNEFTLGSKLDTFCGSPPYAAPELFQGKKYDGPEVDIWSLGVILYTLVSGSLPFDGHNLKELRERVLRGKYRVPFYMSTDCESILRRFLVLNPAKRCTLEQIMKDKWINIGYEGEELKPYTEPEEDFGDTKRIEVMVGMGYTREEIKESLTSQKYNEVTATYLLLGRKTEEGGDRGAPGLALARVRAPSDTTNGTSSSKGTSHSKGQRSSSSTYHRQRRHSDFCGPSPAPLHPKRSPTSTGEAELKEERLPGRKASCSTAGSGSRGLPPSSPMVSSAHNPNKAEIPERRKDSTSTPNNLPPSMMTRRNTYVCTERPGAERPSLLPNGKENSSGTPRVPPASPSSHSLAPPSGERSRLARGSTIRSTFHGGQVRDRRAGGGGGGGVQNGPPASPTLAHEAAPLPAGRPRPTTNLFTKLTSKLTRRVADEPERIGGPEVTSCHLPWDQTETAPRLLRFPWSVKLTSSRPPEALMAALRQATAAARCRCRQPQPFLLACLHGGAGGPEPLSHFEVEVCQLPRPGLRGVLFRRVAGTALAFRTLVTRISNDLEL
# These are yes or no findings as the source states them, for the method shown. In cells and extracts the contact can be indirect. Some binding calls cover weakened binding; strength is not graded here. Tags and fused reporters may be left off the sequences shown.
# T1: Mitofusin 2 (MFN2), endogenous (mouse (endogenous in Neuro-2a and C2C12)) (UniProt Q80U63)
# T1 sequence: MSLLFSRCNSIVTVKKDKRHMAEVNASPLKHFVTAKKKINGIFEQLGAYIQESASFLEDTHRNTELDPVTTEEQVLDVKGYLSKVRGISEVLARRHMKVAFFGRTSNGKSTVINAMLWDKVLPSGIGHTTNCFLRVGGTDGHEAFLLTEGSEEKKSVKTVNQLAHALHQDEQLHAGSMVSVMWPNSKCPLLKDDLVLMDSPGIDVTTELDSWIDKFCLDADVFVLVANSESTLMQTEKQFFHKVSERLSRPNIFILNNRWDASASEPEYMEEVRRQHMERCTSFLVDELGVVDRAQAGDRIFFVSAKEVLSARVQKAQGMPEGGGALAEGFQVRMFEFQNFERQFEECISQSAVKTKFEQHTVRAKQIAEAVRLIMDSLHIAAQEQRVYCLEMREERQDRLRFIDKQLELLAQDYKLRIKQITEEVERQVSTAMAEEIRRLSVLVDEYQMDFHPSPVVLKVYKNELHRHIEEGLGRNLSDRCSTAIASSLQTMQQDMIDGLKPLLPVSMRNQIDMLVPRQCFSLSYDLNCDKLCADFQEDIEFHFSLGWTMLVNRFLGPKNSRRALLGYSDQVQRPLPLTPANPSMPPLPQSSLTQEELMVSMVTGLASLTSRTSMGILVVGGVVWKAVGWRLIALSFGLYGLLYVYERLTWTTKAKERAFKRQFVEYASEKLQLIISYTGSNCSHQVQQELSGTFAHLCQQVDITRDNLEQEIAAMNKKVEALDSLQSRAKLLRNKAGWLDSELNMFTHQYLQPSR
# B1: Mitofusin 2 (MFN2), endogenous (protein, UniProt Q80U63 1-757)
# chain: T1 sequence
# B2: FLAG-tagged full-length human MFN2 (amino acid 1-757) (protein, UniProt O95140-1 1-757)
# chain: MSLLFSRCNSIVTVKKNKRHMAEVNASPLKHFVTAKKKINGIFEQLGAYIQESATFLEDTYRNAELDPVTTEEQVLDVKGYLSKVRGISEVLARRHMKVAFFGRTSNGKSTVINAMLWDKVLPSGIGHTTNCFLRVEGTDGHEAFLLTEGSEEKRSAKTVNQLAHALHQDKQLHAGSLVSVMWPNSKCPLLKDDLVLMDSPGIDVTTELDSWIDKFCLDADVFVLVANSESTLMQTEKHFFHKVSERLSRPNIFILNNRWDASASEPEYMEEVRRQHMERCTSFLVDELGVVDRSQAGDRIFFVSAKEVLNARIQKAQGMPEGGGALAEGFQVRMFEFQNFERRFEECISQSAVKTKFEQHTVRAKQIAEAVRLIMDSLHMAAREQQVYCEEMREERQDRLKFIDKQLELLAQDYKLRIKQITEEVERQVSTAMAEEIRRLSVLVDDYQMDFHPSPVVLKVYKNELHRHIEEGLGRNMSDRCSTAITNSLQTMQQDMIDGLKPLLPVSVRSQIDMLVPRQCFSLNYDLNCDKLCADFQEDIEFHFSLGWTMLVNRFLGPKNSRRALMGYNDQVQRPIPLTPANPSMPPLPQGSLTQEEFMVSMVTGLASLTSRTSMGILVVGGVVWKAVGWRLIALSFGLYGLLYVYERLTWTTKAKERAFKRQFVEHASEKLQLVISYTGSNCSHQVQQELSGTFAHLCQQVDVTRENLEQEIAAMNKKIEVLDSLQSKAKLLRNKAGWLDSELNMFTHQYLQPSR
# B3: FLAG-tagged human MFN2 truncated construct N (amino acid 1-600) (domain or fragment, UniProt O95140-1 1-600)
# chain: MSLLFSRCNSIVTVKKNKRHMAEVNASPLKHFVTAKKKINGIFEQLGAYIQESATFLEDTYRNAELDPVTTEEQVLDVKGYLSKVRGISEVLARRHMKVAFFGRTSNGKSTVINAMLWDKVLPSGIGHTTNCFLRVEGTDGHEAFLLTEGSEEKRSAKTVNQLAHALHQDKQLHAGSLVSVMWPNSKCPLLKDDLVLMDSPGIDVTTELDSWIDKFCLDADVFVLVANSESTLMQTEKHFFHKVSERLSRPNIFILNNRWDASASEPEYMEEVRRQHMERCTSFLVDELGVVDRSQAGDRIFFVSAKEVLNARIQKAQGMPEGGGALAEGFQVRMFEFQNFERRFEECISQSAVKTKFEQHTVRAKQIAEAVRLIMDSLHMAAREQQVYCEEMREERQDRLKFIDKQLELLAQDYKLRIKQITEEVERQVSTAMAEEIRRLSVLVDDYQMDFHPSPVVLKVYKNELHRHIEEGLGRNMSDRCSTAITNSLQTMQQDMIDGLKPLLPVSVRSQIDMLVPRQCFSLNYDLNCDKLCADFQEDIEFHFSLGWTMLVNRFLGPKNSRRALMGYNDQVQRPIPLTPANPSMPPLPQGSLTQEEFM
# B4: FLAG-tagged human MFN2 truncated construct G (amino acid 1-350) (domain or fragment, UniProt O95140-1 1-350)
# chain: MSLLFSRCNSIVTVKKNKRHMAEVNASPLKHFVTAKKKINGIFEQLGAYIQESATFLEDTYRNAELDPVTTEEQVLDVKGYLSKVRGISEVLARRHMKVAFFGRTSNGKSTVINAMLWDKVLPSGIGHTTNCFLRVEGTDGHEAFLLTEGSEEKRSAKTVNQLAHALHQDKQLHAGSLVSVMWPNSKCPLLKDDLVLMDSPGIDVTTELDSWIDKFCLDADVFVLVANSESTLMQTEKHFFHKVSERLSRPNIFILNNRWDASASEPEYMEEVRRQHMERCTSFLVDELGVVDRSQAGDRIFFVSAKEVLNARIQKAQGMPEGGGALAEGFQVRMFEFQNFERRFEECIS
# B5: FLAG-tagged human MFN2 truncated construct ΔN (amino acid 601-757) (domain or fragment, UniProt O95140-1 601-757)
# chain: VSMVTGLASLTSRTSMGILVVGGVVWKAVGWRLIALSFGLYGLLYVYERLTWTTKAKERAFKRQFVEHASEKLQLVISYTGSNCSHQVQQELSGTFAHLCQQVDVTRENLEQEIAAMNKKIEVLDSLQSKAKLLRNKAGWLDSELNMFTHQYLQPSR
# What was measured:
# [1] = target: T1, Mitofusin 2 (MFN2), endogenous (mouse (endogenous in Neuro-2a and C2C12)); test: co-IP; endogenous proteins; Neuro-2a cell lysates, IP with anti-MARK4 or anti-MFN2 antibodies and Protein A Sepharose beads, 4 h at 4°C; binding buffer 50 mM Tris-Cl pH 8.0, 150 mM NaCl, 5 mM EDTA, 5 mM EGTA, 10% glycerol, 10 mM NaF, 0.1% NP-40
# [2] = target: T1, Mitofusin 2 (MFN2), endogenous (mouse (endogenous in Neuro-2a and C2C12)); test: proximity ligation; in situ PLA (Duolink) on fixed C2C12 cells expressing mitoGFP or GFP-ER; colocalisation of PLA dots with the GFP-positive organelles
# [3] = target: T1, Mitofusin 2 (MFN2), endogenous (mouse (endogenous in Neuro-2a and C2C12)); test: proximity ligation; in situ PLA (Duolink) on fixed Neuro-2a cells with rabbit anti-MARK4 and mouse anti-MFN2 antibodies; no signals with a single antibody
# [4] = target: Microtubule affinity-regulating kinase 4 (MARK4), endogenous (mouse (endogenous in Neuro-2a and C2C12)) (UniProt Q8CIP4); test: co-IP; endogenous proteins; Neuro-2a cell lysates, IP with anti-MARK4 or anti-MFN2 antibodies and Protein A Sepharose beads, 4 h at 4°C; binding buffer 50 mM Tris-Cl pH 8.0, 150 mM NaCl, 5 mM EDTA, 5 mM EGTA, 10% glycerol, 10 mM NaF, 0.1% NP-40
# human MARK4-MYC (human) = human MARK4-MYC (human) (UniProt Q96L34); test: co-IP; lysates of 293T cells transfected with MARK4-MYC and FLAG-tagged MFN2 constructs; which tag was precipitated is not stated
Molecule,binding (human MARK4-MYC (human)),further results
"Microtubule affinity-regulating kinase 4 (MARK4), endogenous (from UniProt Q8CIP4 1-752) (enzyme)",–,binding [1]: binds; binding [2]: binds; binding [3]: binds
B1,–,binding [4]: binds
B2,binds,–
B3,binds,–
B4,binds,–
B5,no binding,–
